Data published in the RNAGym collection of RNA variant scans (doi:10.7554/elife.90254).
Read counts are not given, so values of variants with three or more changes are uncertain.

B1: LINE1-mini (parent)
chain: GGCAGAGCUCAACACAGCGUGGCAAAGUGGCUGUGGCUAGACUGCC

Variants of: B1
Assay: self-cleavage, relative activity (ratio to wild type); higher = more cleavage; in vitro, sequencing; the parent is a self-cleaving ribozyme

Row | Variant | self-cleavage
1 | GGCAGAGCUCAAGACAGCGUGGCAAACUGGCUGUGGCUCGACUGCC [C13G G27C A39C] | 0.09
2 | GGCAGAGCUCAAGACAGCGUGGCAAAUUGGCUGUGGCUAGACUACC [C13G G27U G44A] | 0.07
3 | GGCAGAGCUCAAGACAGCGUGGCAAAUUGGCAGUGGCUAGACUGCC [C13G G27U U32A] | 0.21
4 | GGCAGAGCUCAAGACAGCGUGGCAAAUUGGCUGUGGCAAGACUGCC [C13G G27U U38A] | 0.25
5 | GGCAGAGCUCAAGACAGCGUGGCAAAGUAGCUGUGGUUUGACUGCC [C13G G29A C37U A39U] | 0.02
6 | GGCAGAGCUCAAGACAGCGUGGCAAAGUAGCUCUGGCUAGACUGCC [C13G G29A G33C] | 0.01
7 | GGCAGAGCUCAAGACAGCGUGGCAAAGUCGCUGAGGCUAGACUGCC [C13G G29C U34A] | 0.11
8 | GGCAGAGCUCAAGACAGCGUGGCAAAGUUGAGGUGGCUAGACUGCA [C13G G29U C31A U32G C46A] | 0.06
9 | GGCAGAGCUCAAGACAGCGUGGCAAAGUUGCUGUGUCUAGACUGGC [C13G G29U G36U C45G] | 0.02
10 | GGCAGAGCUCAAGACAGCGUGGCAAAGUGACUGUGGCUCGACUGCC [C13G G30A A39C] | 0.04
11 | GGCAGAGCUCAAGACAGCGUGGCAAAGUGACUGUGGCUAGAUUGCC [C13G G30A C42U] | 0
12 | GGCAGAGCUCAAGACAGCGUGGCAAAGUGCUUGUGGCUAGACUGCC [C13G G30C C31U] | 0.03
13 | GGCAGAGCUCAAGACAGCGUGGCAAAGUGCCUGUAGCUAGACUGCC [C13G G30C G35A] | 0.08
14 | GGCAGAGCUCAAGACAGCGUGGCAAAGUGCCUGUGGCUACACUGCU [C13G G30C G40C C46U] | 0.04
15 | GGCAGAGCUCAAGACAGCGUGGCAAAGUGGCUAUAGUUAGAAUGCC [C13G G33A G35A C37U C42A] | 0.12
16 | GGCAGAGCUCAAGACAGCGUGGCAAAGUGGCUUUGGCUAGUCUGCC [C13G G33U A41U] | 0.41
17 | GGCAGAGCUCAAGACAGCGUGGCAAAGUGGCUGUUGAUAGACUGCC [C13G G35U C37A] | 0.07
18 | GGCAGAGCUCAAGACAGCGUGGCAAAGUGGCUGUUGUUAGACUGCC [C13G G35U C37U] | 0.11
19 | GGCAGAGCUCAAGACAGCGUGGCAAAGUGGCUGUGACUGGACUGCC [C13G G36A A39G] | 0.13

Row | Variant | self-cleavage
20 | GGCAGAGCUCAAGACAGCGAGGCUAAGUGGCUGUGGCUAGACUGCC [C13G U20A A24U] | 0.06
21 | GGCAGAGCUCAAGACAGCGAGGCAAAGUGGCUUUGGCUAGACUGCU [C13G U20A G33U C46U] | 0.02
22 | GGCAGAGCUCAAGACAGCGCGGCCAAGUAGCUGUGGCUAGACUGCC [C13G U20C A24C G29A] | 0.09
23 | GGCAGAGCUCAAGACAGCGCGCCAAAGUGGCUGUGGCUAGACUGCC [C13G U20C G22C] | 0.32
24 | GGCAGAGCUCAAGACAGCGCGGCAAAGUUGCUGUGGCUAUACUGCG [C13G U20C G29U G40U C46G] | 0.31
25 | GGCAGAGCUCAAGACAGCGGGGCAUAGUGACUGUGGCUAGACUGCC [C13G U20G A25U G30A] | 0.04
26 | GGCAGAGCUCAAGACAGCGGGGGAAAGUGGCUGUGGCUAGACUGCC [C13G U20G C23G] | 0.01
27 | GGCAGAGCUCAAGACAGCGGGGCAAAUUGCCUGUGGCUACAGUGCG [C13G U20G G27U G30C G40C C42G C46G] | 0.01
28 | GGCAGAGCUCAAGACAGCGUGGCAAAGAGGCUGUGGCUAGACUGCA [C13G U28A C46A] | 0.12
29 | GGCAGAGCUCAAGACAGCGUGGCAAAGACGAUGUGGCUAGACUGCC [C13G U28A G29C C31A] | 0.03
30 | GGCAGAGCUCAAGACAGCGUGGCAAAGAGGCUGGGGCUAGACUGCC [C13G U28A U34G] | 0.11
31 | GGCAGAGCUCAAGACAGCGUGGCAAAGGGGCUGCGGCUAGGCUGCC [C13G U28G U34C A41G] | 0.01
32 | GGCAGAGCUCAAGACAGCGUGGCAAAGUGGCCGUGGCUGGACUGCC [C13G U32C A39G] | 0.03
33 | GGCAGAGCUCAAGACAGCGUGGCAAAGUGGCCGUGGCUAUAUUGAC [C13G U32C G40U C42U C45A] | 0.05
34 | GGCAGAGCUCAAGACAGCGUGGCAAAGUGGCUGCGGCUAGACUGCU [C13G U34C C46U] | 0.02
35 | GGCAGAGCUCAAGACAGCGUGGCAAAGUGGCUGGGGCUUGUCUGCC [C13G U34G A39U A41U] | 0.01
36 | GGCAGAGCUCAAGACAGCGUGGCAAAGUGGCUGGCGCUAGACUGCA [C13G U34G G35C C46A] | 0.15
37 | GGCAGAGCUCAAGACAGCGUGGCAAAGUGGCUGUGGCUAGACGGUC [C13G U43G C45U] | 0.01
38 | GGCAGAGCUCAAUCCGGCGUGGCAAAGUGGCUGUGGCUAGACUGCC [C13U A14C A16G] | 0.03

Row | Variant | self-cleavage
39 | GGCAGAGCUCAAUCCAGCGUGGCUACAUGGCUGUGGCUAGACUGCC [C13U A14C A24U A26C G27A] | 0.08
40 | GGCAGAGCUCAAUCCAGCGUGGCAACGUGGCUGGGGCUACACUGCC [C13U A14C A26C U34G G40C] | 0.01
41 | GGCAGAGCUCAAUCCAGCGUGGCAAAGUGGUUGUGGCUGGACUGCC [C13U A14C C31U A39G] | 0.05
42 | GGCAGAGCUCAAUCCAUCGUGGCAAAUUGCCUGUGGCUAGACUGCC [C13U A14C G17U G27U G30C] | 0.01
43 | GGCAGAGCUCAAUCCAGCGUGCCAAAUUGGCUGUGGCUAGAGUGCC [C13U A14C G22C G27U C42G] | 0.01
44 | GGCAGAGCUCAAUCCAGCGUGGCAAAGUGGCCGUGGCUAGACUGCC [C13U A14C U32C] | 0
45 | GGCAGAGCUCAAUCCAGCGUGGCAAAGUGGCGGUGGCUUGACUGCC [C13U A14C U32G A39U] | 0.01
46 | GGCAGAGCUCAAUGCAGCGUGGCAAAGCGGCCGUGGCUAUUCUGCC [C13U A14G U28C U32C G40U A41U] | 0.07
47 | GGCAGAGCUCAAUUCAGCGUGGCGAAGUGGCUGUGGCUAGACUGCC [C13U A14U A24G] | 0.23
48 | GGCAGAGCUCAAUUCAGGGUGGGAAAGUGGCUGUGGCUACACUUCC [C13U A14U C18G C23G G40C G44U] | 0.09
49 | GGCAGAGCUCAAUUCAGCGUGGCAAAGUGGCUGUGGAUAGACUGCC [C13U A14U C37A] | 0.18
50 | GGCAGAGCUCAAUUCAGCGUGGCAAAACGGCUGUGGCUAGACUGCA [C13U A14U G27A U28C C46A] | 0.01
51 | GGCAGAGCUCAAUACCGAGUGGCAAGGUGGCUGUGGCUAGACUGCC [C13U A16C C18A A26G] | 0.02
52 | GGCAGAGCUCAAUACCGUGUGGCAAAGUGGCUGUGGCUAGUCUGCC [C13U A16C C18U A41U] | 0
53 | GGCAGAGCUCAAUACCGCGUGGCAAAGUGGCUAUGGAUAGACUGCC [C13U A16C G33A C37A] | 0.11
54 | GGCAGAGCUCAAUACGUGUUGGCAAAGUGACUGUGGCUAGACUGCC [C13U A16G G17U C18G G19U G30A] | 0.05
55 | GGCAGAGCUCAAUACUGAGUGGCAAAGUGGCUGUGGCUAGACUGCC [C13U A16U C18A] | 0.12
56 | GGCAGAGCUCAAUACUGGGUGGCAAAAAGGCUGUGGCUAGACUGCC [C13U A16U C18G G27A U28A] | 0.2
